According to paper PMC5986797, “Laminin heparin-binding peptides bind to several growth factors and enhance diabetic wound healing” (Nature Communications, 2018):
Results are given in words; binding and its absence hold for the method and conditions named. Some entries that bind do so weakly or less than the wild type.

Protein sequences, listed by entry. Tags and fused reporters are not part of them. Lines headed by an entry give the natural chain unless they say otherwise; changes in a name come on top. Residues count along the entry.
laminin peptide LAMA4_(1408–1434) (Q16363, residues 1408-1434): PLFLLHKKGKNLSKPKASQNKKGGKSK
laminin peptide LAMA4_(1521–1543) (Q16363, residues 1521-1543): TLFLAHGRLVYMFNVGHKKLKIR
UniProt P11047: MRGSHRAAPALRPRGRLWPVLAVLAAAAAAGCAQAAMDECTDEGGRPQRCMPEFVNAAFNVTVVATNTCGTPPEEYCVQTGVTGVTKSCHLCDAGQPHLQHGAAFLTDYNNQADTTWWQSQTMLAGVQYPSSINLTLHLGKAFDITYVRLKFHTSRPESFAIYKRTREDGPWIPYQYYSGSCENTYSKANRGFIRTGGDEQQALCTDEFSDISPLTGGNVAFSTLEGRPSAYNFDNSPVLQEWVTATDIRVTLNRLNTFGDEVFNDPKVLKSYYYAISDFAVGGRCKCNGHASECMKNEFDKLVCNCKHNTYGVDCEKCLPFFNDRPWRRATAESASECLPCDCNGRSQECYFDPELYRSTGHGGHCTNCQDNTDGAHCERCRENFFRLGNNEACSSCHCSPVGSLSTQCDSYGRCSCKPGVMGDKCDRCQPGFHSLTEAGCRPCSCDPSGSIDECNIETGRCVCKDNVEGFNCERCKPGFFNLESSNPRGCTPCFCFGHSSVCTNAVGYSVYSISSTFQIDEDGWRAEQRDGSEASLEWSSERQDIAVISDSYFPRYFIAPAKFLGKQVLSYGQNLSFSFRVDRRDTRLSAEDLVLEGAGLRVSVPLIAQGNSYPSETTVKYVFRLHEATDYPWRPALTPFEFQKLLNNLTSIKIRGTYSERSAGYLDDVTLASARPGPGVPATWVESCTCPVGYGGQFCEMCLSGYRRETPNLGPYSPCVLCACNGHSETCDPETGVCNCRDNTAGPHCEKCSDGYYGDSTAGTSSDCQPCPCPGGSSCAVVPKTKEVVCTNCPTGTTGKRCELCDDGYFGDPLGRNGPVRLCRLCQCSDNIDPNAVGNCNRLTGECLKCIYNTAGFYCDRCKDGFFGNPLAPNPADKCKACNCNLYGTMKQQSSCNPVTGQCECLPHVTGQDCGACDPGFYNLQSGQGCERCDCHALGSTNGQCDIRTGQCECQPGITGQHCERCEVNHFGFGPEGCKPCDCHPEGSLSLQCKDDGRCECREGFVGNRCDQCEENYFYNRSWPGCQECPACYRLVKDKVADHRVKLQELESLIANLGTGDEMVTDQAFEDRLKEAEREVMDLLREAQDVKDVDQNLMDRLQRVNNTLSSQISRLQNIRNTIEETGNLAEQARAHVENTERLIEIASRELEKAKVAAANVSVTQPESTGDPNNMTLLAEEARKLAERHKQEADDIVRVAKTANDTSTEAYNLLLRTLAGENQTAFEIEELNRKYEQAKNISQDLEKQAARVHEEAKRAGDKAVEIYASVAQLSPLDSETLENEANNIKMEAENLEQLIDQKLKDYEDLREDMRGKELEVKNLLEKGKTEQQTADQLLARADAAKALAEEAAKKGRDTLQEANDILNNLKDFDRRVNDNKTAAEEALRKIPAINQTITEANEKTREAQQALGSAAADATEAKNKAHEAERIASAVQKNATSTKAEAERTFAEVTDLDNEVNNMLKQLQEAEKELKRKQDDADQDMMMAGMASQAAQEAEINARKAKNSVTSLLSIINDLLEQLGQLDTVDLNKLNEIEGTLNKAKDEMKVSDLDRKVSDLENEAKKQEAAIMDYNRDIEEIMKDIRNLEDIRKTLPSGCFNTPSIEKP
UniProt O15230: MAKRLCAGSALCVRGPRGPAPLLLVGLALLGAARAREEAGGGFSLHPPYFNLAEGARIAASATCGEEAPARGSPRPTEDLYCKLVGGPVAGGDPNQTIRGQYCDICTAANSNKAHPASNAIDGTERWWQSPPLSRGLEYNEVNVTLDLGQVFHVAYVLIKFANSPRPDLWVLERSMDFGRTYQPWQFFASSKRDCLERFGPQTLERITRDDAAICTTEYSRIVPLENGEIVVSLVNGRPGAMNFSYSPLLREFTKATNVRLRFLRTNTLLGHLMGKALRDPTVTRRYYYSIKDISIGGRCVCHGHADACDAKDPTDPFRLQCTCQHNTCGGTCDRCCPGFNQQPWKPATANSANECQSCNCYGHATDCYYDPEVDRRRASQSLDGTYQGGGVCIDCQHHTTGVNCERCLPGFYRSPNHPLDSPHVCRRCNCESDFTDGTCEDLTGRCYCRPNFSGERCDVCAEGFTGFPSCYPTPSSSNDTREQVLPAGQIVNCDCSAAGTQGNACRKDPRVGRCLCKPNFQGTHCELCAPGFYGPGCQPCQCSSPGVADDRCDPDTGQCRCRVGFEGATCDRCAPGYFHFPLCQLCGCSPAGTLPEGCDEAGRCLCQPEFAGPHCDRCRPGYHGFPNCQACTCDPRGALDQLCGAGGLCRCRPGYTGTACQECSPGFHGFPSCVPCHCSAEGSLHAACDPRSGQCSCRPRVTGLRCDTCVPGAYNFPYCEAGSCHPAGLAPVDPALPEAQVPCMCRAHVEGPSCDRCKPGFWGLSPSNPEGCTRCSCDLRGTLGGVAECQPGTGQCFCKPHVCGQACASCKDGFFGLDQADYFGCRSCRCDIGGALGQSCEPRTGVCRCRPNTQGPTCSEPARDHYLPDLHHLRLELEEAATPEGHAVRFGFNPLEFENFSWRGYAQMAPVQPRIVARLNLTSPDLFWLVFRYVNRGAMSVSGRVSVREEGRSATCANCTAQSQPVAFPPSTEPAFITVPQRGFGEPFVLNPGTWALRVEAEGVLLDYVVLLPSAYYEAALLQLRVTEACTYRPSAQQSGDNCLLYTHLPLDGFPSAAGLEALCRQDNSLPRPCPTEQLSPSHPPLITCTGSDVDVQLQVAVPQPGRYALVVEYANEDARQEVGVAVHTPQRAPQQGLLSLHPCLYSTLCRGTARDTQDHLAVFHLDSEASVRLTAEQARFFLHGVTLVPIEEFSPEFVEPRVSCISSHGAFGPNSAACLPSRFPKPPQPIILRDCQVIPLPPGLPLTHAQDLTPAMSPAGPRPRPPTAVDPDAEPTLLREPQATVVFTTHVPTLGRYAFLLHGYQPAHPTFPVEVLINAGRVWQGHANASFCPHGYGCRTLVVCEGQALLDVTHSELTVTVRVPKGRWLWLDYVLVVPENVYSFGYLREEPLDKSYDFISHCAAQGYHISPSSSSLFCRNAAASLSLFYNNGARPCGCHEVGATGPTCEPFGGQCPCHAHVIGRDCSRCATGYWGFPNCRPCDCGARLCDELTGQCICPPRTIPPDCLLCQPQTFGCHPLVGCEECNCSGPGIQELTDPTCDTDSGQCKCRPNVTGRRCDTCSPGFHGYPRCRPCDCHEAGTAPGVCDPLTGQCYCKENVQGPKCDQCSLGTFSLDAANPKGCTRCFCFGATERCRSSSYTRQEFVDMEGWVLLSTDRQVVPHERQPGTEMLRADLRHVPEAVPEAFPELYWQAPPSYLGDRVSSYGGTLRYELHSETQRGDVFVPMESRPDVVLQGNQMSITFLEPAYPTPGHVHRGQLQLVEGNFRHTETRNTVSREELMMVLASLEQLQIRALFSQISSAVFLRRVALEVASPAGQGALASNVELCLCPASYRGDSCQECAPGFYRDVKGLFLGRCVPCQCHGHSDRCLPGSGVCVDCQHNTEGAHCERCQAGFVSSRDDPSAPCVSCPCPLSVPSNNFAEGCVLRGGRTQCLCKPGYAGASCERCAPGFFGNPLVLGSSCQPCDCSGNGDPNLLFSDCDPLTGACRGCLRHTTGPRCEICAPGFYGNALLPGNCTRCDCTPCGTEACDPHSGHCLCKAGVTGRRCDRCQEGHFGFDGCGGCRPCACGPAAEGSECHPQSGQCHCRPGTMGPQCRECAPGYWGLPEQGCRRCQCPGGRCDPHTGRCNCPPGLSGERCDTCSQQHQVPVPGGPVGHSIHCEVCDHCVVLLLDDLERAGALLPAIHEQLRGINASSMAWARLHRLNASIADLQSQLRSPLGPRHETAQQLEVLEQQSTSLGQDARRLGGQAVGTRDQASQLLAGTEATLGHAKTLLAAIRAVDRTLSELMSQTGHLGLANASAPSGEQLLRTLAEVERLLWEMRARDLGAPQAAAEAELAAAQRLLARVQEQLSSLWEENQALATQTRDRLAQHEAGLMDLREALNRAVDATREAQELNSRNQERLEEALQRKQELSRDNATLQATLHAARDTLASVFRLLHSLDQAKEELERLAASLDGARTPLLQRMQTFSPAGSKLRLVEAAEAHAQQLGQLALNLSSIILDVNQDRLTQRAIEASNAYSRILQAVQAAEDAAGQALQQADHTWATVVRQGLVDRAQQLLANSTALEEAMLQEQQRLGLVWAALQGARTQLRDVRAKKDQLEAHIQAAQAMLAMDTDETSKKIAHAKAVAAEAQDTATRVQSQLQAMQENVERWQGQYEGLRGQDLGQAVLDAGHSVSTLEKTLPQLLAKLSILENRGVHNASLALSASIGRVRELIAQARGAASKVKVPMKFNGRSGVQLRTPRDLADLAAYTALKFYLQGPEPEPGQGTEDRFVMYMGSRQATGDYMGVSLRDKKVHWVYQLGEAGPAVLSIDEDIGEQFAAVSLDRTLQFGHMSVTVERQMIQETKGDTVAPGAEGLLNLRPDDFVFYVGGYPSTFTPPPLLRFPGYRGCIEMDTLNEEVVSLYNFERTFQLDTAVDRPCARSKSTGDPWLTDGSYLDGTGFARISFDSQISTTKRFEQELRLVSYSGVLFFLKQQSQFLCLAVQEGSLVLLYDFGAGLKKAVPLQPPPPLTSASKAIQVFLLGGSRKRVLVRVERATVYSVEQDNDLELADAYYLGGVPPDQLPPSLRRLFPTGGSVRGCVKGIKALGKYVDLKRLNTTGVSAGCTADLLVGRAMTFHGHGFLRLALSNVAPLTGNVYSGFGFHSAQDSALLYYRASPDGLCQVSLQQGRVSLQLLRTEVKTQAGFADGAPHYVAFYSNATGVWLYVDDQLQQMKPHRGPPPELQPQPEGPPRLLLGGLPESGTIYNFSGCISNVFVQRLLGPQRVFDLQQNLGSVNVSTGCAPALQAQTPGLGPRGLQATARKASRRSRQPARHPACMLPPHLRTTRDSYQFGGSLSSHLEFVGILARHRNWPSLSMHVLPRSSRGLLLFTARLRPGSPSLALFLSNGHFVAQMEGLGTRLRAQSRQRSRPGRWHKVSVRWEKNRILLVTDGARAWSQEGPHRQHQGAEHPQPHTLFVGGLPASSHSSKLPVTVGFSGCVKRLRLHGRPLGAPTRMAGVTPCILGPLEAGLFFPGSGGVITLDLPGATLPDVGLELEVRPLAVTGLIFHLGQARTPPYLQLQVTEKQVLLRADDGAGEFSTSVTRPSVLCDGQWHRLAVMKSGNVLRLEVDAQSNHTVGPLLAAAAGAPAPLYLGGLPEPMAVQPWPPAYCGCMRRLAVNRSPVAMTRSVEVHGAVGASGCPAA
UniProt P01138, residues 122-241: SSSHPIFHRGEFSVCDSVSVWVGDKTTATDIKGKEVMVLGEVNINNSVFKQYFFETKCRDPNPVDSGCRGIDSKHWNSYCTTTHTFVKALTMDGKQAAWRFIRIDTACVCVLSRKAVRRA
UniProt P18075, residues 293-431: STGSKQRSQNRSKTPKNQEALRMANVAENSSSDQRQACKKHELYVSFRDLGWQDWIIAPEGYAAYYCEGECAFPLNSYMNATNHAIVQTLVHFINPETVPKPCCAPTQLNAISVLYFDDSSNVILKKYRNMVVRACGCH
UniProt P48061, residues 22-89: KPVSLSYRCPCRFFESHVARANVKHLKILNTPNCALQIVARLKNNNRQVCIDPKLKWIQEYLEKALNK
UniProt P05019, residues 49-118: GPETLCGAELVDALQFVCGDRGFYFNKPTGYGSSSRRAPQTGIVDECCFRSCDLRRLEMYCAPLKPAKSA
UniProt Q99075, residues 63-148: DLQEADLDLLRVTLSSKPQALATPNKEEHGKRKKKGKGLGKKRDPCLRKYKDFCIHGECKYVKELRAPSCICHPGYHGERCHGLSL
UniProt P05230, residues 16-155: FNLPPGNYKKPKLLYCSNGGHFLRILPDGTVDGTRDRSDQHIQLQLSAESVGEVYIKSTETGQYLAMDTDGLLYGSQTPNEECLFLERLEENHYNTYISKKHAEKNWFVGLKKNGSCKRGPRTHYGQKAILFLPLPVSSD
UniProt P09038, residues 143-288: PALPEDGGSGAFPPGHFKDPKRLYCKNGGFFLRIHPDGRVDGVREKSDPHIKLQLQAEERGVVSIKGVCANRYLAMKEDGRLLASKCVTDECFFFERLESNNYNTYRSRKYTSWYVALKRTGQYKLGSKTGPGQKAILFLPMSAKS
UniProt P01127, residues 82-190: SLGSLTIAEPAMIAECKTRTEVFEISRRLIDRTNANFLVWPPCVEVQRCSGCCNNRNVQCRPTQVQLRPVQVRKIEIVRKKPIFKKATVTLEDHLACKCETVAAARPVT
UniProt P34741, residues 19-144: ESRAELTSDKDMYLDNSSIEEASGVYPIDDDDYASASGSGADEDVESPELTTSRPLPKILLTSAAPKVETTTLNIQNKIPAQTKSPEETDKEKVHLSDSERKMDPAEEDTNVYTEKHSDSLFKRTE

How the values were obtained:
laminin-221 = laminin-221 (UniProt P24043); assay: ELISA; plates coated with 10 μg/mL laminin isoform; 1 μg/mL GF for 60 min at RT in the absence or presence of 10 μM heparin; bound GF detected with an antibody for each GF; both purified
[1] = target: recombinant human laminin-411 (human) (UniProt Q16363+P07942+P11047); assay: as above
[2] = target: recombinant human laminin-421 (human) (UniProt Q16363+P55268+P11047); assay: as above
[3] = target: laminin peptide LAMA4_(1521–1543) (human) (UniProt Q16363); assay: ELISA; plates coated with laminin peptide (10 µg/mL by the legend, 1 μg/mL by the methods); 1 μg/mL GF added; bound GF detected with an antibody for each GF; BSA-coated wells as control; both purified
[4] = target: T1, laminin peptide LAMA5_(3312–3325) (human) (UniProt O15230); assay: as above
T1 sequence (peptide): ARKASRRSRQPARH

[5] = target: laminin peptide LAMA4_(1408–1434) (human) (UniProt Q16363); assay: as above
[6] = target: β-nerve growth factor (βNGF) (UniProt P01138); assay: ELISA; plates coated with 50 nM GF or chemokine in PBS; 10 nM laminin isoform in PBS added; bound laminin detected with anti-LAMC1 or anti-LAMA3 polyclonal antibody; A450 signals greater than 0.1 taken as binding; BSA-coated wells as control; both purified
CXCL-11 = target: T2, CXCL-11 (UniProt O14625); assay: as above
T2 sequence: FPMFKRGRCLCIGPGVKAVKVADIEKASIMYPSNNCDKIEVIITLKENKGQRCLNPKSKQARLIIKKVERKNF

BMP-7 = BMP-7 (UniProt P18075); assay: as above
BMP-4 = target: T3, BMP-4 (UniProt P12644); assay: as above
T3 sequence: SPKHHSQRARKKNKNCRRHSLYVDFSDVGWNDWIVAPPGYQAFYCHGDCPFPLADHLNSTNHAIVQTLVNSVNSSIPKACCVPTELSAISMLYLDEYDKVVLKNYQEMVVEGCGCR

FGF-6 = target: T4, FGF-6 (UniProt P10767); assay: as above
T4 sequence: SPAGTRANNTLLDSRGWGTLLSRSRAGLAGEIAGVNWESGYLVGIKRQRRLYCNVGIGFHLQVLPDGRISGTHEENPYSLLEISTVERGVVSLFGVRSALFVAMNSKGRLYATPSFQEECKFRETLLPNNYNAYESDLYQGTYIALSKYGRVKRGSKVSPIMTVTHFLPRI

PlGF-1 (human) = target: T5, PlGF-1 (human) (UniProt P49763); assay: as above
T5 sequence: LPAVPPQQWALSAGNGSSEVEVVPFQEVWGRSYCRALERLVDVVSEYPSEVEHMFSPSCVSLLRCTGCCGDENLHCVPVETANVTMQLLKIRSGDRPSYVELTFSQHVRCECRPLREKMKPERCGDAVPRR

CXCL-12α = CXCL-12α (UniProt P48061); assay: as above
IGF-1 = IGF-1 (UniProt P05019); assay: as above
[7] = target: heparin-binding epidermal growth factor (HB-EGF) (UniProt Q99075); assay: as above
FGF-1 = FGF-1 (UniProt P05230); assay: as above
[8] = target: laminin peptide LAMA4_(1521–1543) (human) (UniProt Q16363); assay: ELISA; plates coated with laminin peptide (10 µg/mL by the legend, 1 μg/mL by the methods); 1 μg/mL His-tagged syndecan added; detected with anti-histidine tag antibody; BSA-coated wells as control; both purified
[9] = target: T6, laminin peptide LAMA3_(2932–2951) (human) (UniProt Q16787); assay: as above
T6 sequence (peptide): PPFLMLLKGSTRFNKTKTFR

[10] = target: T7, laminin peptide LAMA3_(3031–3043) (human) (UniProt Q16787); assay: as above
T7 sequence (peptide): KNSFMALYLSKGR

[11] = target: T1, laminin peptide LAMA5_(3312–3325) (human); assay: as above
[12] = target: laminin peptide LAMA4_(1408–1434) (human) (UniProt Q16363); assay: as above
[13] = target: T8, laminin peptide LAMA5_(3539–3550) (human) (UniProt O15230); assay: as above
T8 sequence (peptide): TLPDVGLELEVR

| binding [6] | binding (CXCL-11) | binding (BMP-7) | binding (BMP-4) | binding (FGF-6) | binding (PlGF-1 (human)) | binding (CXCL-12α) | binding (IGF-1) | binding [7] | binding (FGF-1) | Substance | further results |
| --- | --- | --- | --- | --- | --- | --- | --- | --- | --- | --- | --- |
|  |  |  |  |  |  |  |  |  |  | FGF-2 (from UniProt P09038 143-288) (ligand) | binding (laminin-221): binds; binding [1]: binds; binding [2]: binds; binding [3]: binds; binding [4]: no binding (tested: 1 μg/mL); binding [5]: binds |
|  |  |  |  |  |  |  |  |  |  | platelet-derived growth factor PDGF-BB (from UniProt P01127 82-190) (ligand) | binding [3]: no binding (tested: 1 μg/mL); binding [4]: no binding (tested: 1 μg/mL); binding [5]: binds |
| binds weakly | no binding (tested: 10 nM laminin) | no binding (tested: 10 nM laminin) | no binding (tested: 10 nM laminin) | no binding (tested: 10 nM laminin) | no binding (tested: 10 nM laminin) | no binding (tested: 10 nM laminin) | no binding (tested: 10 nM laminin) | binds weakly | no binding (tested: 10 nM laminin) | recombinant human laminin-211 (from UniProt P24043 23-3122; P07942 22-1786; P11047 34-1609) (complex) |  |
| binds weakly | no binding (tested: 10 nM laminin) | no binding (tested: 10 nM laminin) | no binding (tested: 10 nM laminin) | no binding (tested: 10 nM laminin) | no binding (tested: 10 nM laminin) | no binding (tested: 10 nM laminin) | no binding (tested: 10 nM laminin) | binds weakly | no binding (tested: 10 nM laminin) | recombinant human laminin-511 (from UniProt O15230 36-3695; P07942 22-1786; P11047 34-1609) (complex) |  |
| binds weakly | no binding (tested: 10 nM laminin) | no binding (tested: 10 nM laminin) | no binding (tested: 10 nM laminin) | no binding (tested: 10 nM laminin) | no binding (tested: 10 nM laminin) | no binding (tested: 10 nM laminin) | no binding (tested: 10 nM laminin) | binds weakly | no binding (tested: 10 nM laminin) | recombinant human laminin-521 (from UniProt O15230 36-3695; P55268 33-1798; P11047 34-1609) (complex) |  |
|  |  |  |  |  |  |  |  |  |  | recombinant human syndecan-2 (from UniProt P34741 19-144) (receptor) | binding [8]: binds; binding [9]: binds weakly; binding [10]: binds weakly; binding [11]: binds weakly; binding [12]: binds; binding [13]: no binding (tested: 1 μg/mL) |

| Substance | binding [6] | binding (CXCL-11) | binding (BMP-7) | binding (BMP-4) | binding (FGF-6) | binding (PlGF-1 (human)) | binding (CXCL-12α) | binding (IGF-1) | binding [7] | binding (FGF-1) | further results |
| --- | --- | --- | --- | --- | --- | --- | --- | --- | --- | --- | --- |
| recombinant human laminin-111 (from UniProt P25391 18-3075; P07942 22-1786; P11047 34-1609) (complex) | binds weakly | no binding (tested: 10 nM laminin) | no binding (tested: 10 nM laminin) | no binding (tested: 10 nM laminin) | no binding (tested: 10 nM laminin) | no binding (tested: 10 nM laminin) | no binding (tested: 10 nM laminin) | no binding (tested: 10 nM laminin) | binds weakly | no binding (tested: 10 nM laminin) |  |
